Experimental data published in article PMC4336329 (PLoS ONE, 2015).
Out of some 310,000 compounds screened, about 14,000 (4.5%) showed an effect of 50% or more. Effects have a minus sign here. The list shows a part of the results.

Each compound was assayed against human ether-à-go-go-related gene (hERG) potassium channel (human, UniProt Q12809) (assay: primary screen, population patch clamp on CHO cells stably expressing hERG).
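Note: peak tail current of the secondary pulse compared with the same well before compound.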

Sequence of human ether-à-go-go-related gene (hERG) potassium channel (Q12809 whole entry, looked up): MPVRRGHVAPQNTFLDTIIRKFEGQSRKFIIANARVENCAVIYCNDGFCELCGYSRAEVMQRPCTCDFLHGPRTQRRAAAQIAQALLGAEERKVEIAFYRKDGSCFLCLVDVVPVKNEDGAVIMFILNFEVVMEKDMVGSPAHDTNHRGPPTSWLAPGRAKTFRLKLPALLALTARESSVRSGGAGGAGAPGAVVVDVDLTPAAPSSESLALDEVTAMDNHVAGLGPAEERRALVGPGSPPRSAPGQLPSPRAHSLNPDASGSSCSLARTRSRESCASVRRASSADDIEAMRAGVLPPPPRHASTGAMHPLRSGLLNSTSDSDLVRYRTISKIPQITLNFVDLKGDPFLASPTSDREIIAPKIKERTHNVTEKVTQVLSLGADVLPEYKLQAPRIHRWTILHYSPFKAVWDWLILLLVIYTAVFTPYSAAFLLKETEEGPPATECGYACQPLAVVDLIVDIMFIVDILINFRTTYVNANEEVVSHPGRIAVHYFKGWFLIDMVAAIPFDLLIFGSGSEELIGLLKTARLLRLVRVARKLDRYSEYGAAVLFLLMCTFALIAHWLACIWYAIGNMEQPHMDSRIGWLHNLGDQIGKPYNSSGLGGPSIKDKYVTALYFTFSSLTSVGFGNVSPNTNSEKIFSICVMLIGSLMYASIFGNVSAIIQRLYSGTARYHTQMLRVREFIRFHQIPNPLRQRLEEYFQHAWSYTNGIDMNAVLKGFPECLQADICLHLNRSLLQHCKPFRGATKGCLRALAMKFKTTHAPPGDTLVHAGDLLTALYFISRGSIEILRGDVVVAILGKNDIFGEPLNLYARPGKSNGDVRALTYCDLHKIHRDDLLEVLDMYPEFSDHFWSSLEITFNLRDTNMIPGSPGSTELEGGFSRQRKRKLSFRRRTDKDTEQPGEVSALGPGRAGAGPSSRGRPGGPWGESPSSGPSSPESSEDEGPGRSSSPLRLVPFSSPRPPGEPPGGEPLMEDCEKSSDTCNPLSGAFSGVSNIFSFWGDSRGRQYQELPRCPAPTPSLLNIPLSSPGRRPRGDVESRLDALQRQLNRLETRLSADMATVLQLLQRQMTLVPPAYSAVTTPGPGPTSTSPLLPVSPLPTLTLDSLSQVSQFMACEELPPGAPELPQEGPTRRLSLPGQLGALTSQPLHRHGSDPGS

Compound	hERG current change (%, negative = inhibition) at 10uM [%]
CCOC(=O)c1cc(CC)sc1NC(=O)COC(=O)c1cc[n+]([O-])cc1	-3.23
COc1ccc(N/C=C(\C(C)=O)c2ccc(OC)c(OC)c2)cc1OC	18.2
O=C1CC(N2CCCc3ccccc32)C(=O)N1c1ccccc1Cl (stereo not drawn)	-6.32
COC(=O)C1C/C(=N\NS(=O)(=O)c2ccc(C)cc2)c2ccsc2C1 (stereo not drawn)	-9.22
COc1ccc(C(=O)COC(=O)CCn2nnc(-c3cccc(O)c3OC)n2)cc1	13.9
CCc1nc(C)c(-c2ccccc2)c(=O)[nH]1	5.92
CCCCOC(=O)c1cc(=O)[nH]c(=O)[nH]1	16
COc1ccccc1-c1nc(SCC(=O)O)n[nH]1	-1.65
O=C(Nc1ccc2c(c1)C(=O)N(C1CCCCC1)C2=O)C1CCCO1 (stereo not drawn)	-14.6
Cc1cc(N2CCN(c3nc(-c4ccc([N+](=O)[O-])cc4)cs3)CC2)c2ccccc2n1	-33.4
COc1ccc(-c2nc(C#N)c(N3CCCCC3)o2)cc1	-2.53
COc1cc(Cl)c(C)cc1NC(=O)COC(=O)CCc1nc2ccccc2c(=O)[nH]1	-3.99
CC1CCCN(C(=O)Cn2c(-c3nonc3N)nc3ccccc32)C1 (stereo not drawn)	-4.01
Cc1cc(OC(=O)c2ccc(C(F)(F)F)cc2)c([N+](=O)[O-])c(=O)[nH]1	16.1
N#Cc1ccc(CSc2nnc(-c3ccncc3)o2)cc1	-43.7
CCN(c1ccccc1)S(=O)(=O)c1ccc(C(=O)Nc2nnc(CSC)o2)cc1	3.97
Nn1c(SCC(=O)Nc2cccc(F)c2)nnc1C1CCCCC1	-0.18
Cc1c(Nc2nc3ccccc3nc2NS(=O)(=O)c2ccccc2)c(=O)n(-c2ccccc2)n1C	-67.1
COc1ccnc2c1c(=O)n(Cc1ccc(F)cc1)c(=O)n2C	-6.22
O=C(Nc1ccccc1)NC1CCCc2ccccc21 (stereo not drawn)	22.2
COc1cc(OC)cc(C(=O)NNC(=O)c2cc(=O)[nH]c3ccccc23)c1	-13
CCCS(=O)(=O)c1c(S(=O)(=O)CCC)c2cnccn2c1C(=O)c1ccc(CC)cc1	-37.5

Compound	hERG current change (%, negative = inhibition) at 10uM [%]
CN(C)S(=O)(=O)c1ccc(N2CCCC2)c(C(=O)Nc2nc3ccccc3s2)c1	-4.58
COc1ccc2c(c1)C(c1ccc(N3CCOCC3)cc1)=NNC(c1cccnc1)=N2	-5.34
COc1ccc2nc3ccccc3nc2c1NC(=O)c1ccc(Cl)cc1	3.31
O=C(CCSCCC(=O)NCCN1CCOCC1)NCCN1CCOCC1	8.96
O=C(NCC(=O)N(c1ccccc1F)C(C(=O)NC1CCCC1)c1ccco1)c1ccco1 (stereo not drawn)	5.88
CC(=O)Nc1ccc(S(=O)(=O)N2CCN=C2SCc2ccc(F)cc2)cc1	-1.91
Cc1cnc(C(=O)Oc2c(C)ccc(C)c2C)cn1	-19.4
COc1cc(/C=C/C(=O)OCC(=O)Nc2c(C)n(C)n(-c3ccccc3)c2=O)ccc1O	12.2
Cc1nn(-c2ccc(F)cc2)c(C)c1NS(=O)(=O)c1ccc2ccccc2c1	10.9
O=C(COC(=O)CC(c1ccccc1)c1ccccc1)Nc1ccc(F)c(F)c1	-16.5
c1cc(-c2nsc(-c3ccncc3)n2)ccn1	-6.31
Cc1ccc(N2C(=O)CCC2(C(N)=O)c2ccccc2)cc1 (stereo not drawn)	-0.976
CCCCn1nc(C(=O)Nc2nc3c(s2)CCCC3)c2ccccc2c1=O	-6.91
Cc1ccc(CNC(=O)CN(C)C2=NS(=O)(=O)c3ccccc32)cc1	-25.6
CCc1nnc(NC(=O)CCC(=O)N2CCCC2)s1	10.2
Br.COc1ccc(/C=N/Nc2nc(C(=O)O)cs2)cc1	16
C/C(=N\NC(=O)C(N)=O)c1cccc(C(F)(F)F)c1	34.8
CC1CN2c3ccc([N+](=O)[O-])cc3CC3(C(=O)N(C)C(=O)N(C)C3=O)C2C(C)O1 (stereo not drawn)	12
COc1ccc(C(=O)O/N=C(\N)Cc2ccc([N+](=O)[O-])cc2)c(OC)c1	-57.1
C/C(CCc1ccc2c(c1)OCO2)=N\NC(=O)c1ccccc1	9.96
CSC1=NCCN1S(=O)(=O)c1ccc2ccccc2c1	-13.2
O=C(CCSCCC(=O)Nc1c(F)c(F)c(F)c(F)c1F)Nc1c(F)c(F)c(F)c(F)c1F	-7.23

Compound	hERG current change (%, negative = inhibition) at 10uM [%]
Cc1cc(C)c(COc2ccc(/C=N/n3c(C)n[nH]c3=S)cc2)c(C)c1	7.78
Nc1nonc1-n1nnc(C(=O)N/N=C/c2ccccc2Cl)c1CSc1ccccc1	20.9
CCOc1ccc2nc(N(Cc3ccccc3)C(=O)CCNC(C)=O)sc2c1	-61
CCCCN1C=CC(=C2C(=O)c3ccccc3C2=O)C=C1	-1.69
O=C(CSc1nc(-c2ccco2)cc(C(F)(F)F)n1)NCCN1CCOCC1	-2.09
Cc1ccc(OC(=S)Nc2ccc(O)cc2)cc1	-21.3
COc1ccc(CN2CCN(CC=C(C)C)C(CCO)C2)cc1Cn1cncn1 (stereo not drawn)	-0.719
COc1ccc(Cn2ccnc2SCC(=O)Nc2ccccc2OC)cc1	-21.2
CC(C)N(C(=O)c1ccc(-c2ccccc2F)cc1)C(C)C	4.34
O=C(O)c1ccc(OCCCCCCOC2CCCCO2)cc1 (stereo not drawn)	19.1
Cc1cc2c(cc1C)N(CC(=O)N1CCCC1)C(=O)CC(c1ccccc1)=N2	-23.9
Cc1nn(-c2ccccc2)c2sc(-c3nnc(SCC(=O)O)o3)cc12	8.23
O=C(O)C1=C[C@H](c2ccc(C(F)(F)F)cc2)C[C@H](OCCCCO)O1	8.42
OCCC1CN(Cc2cnc(N3CCOCC3)s2)CCN1C1CCCC1 (stereo not drawn)	8.52
Clc1ccc(CN2CCC(c3nc4ccc(Cl)cc4[nH]3)CC2)cc1	-80.7
COc1cc(C(=O)N2CCC(C(=O)Nc3cccc(C(C)=O)c3)CC2)cc(OC)c1OC	-2.12
O=C(c1ccccc1)N1CCN=C1SCc1ccc([N+](=O)[O-])cc1	-56.4
CCCc1ccc(OCC(=O)O)cc1	13.6
O=C(OCCC1Oc2cccnc2NC1=O)c1ccc(Cl)cc1 (stereo not drawn)	10.1
O=c1[nH][nH]c(-c2ccccc2O)c1C(C[N+](=O)[O-])c1ccc(Br)cc1 (stereo not drawn)	15
CC1CN=C(N(C(=O)Nc2ccccc2)C(C)c2ccccc2)S1 (stereo not drawn)	14.5
COc1ccc(C(=O)COC(=O)CCNS(=O)(=O)c2ccccc2)cc1Br	-1.53

Compound	hERG current change (%, negative = inhibition) at 10uM [%]
COc1ccc(NC(=O)C2CCCN(c3ncnc4onc(-c5ccc(F)cc5)c34)C2)cc1 (stereo not drawn)	-7.24
CC(=O)c1ccc(S(=O)(=O)N2CCN(S(=O)(=O)c3ccccc3C(F)(F)F)CC2)cc1	17.9
O=c1[nH]c2cc([N+](=O)[O-])c([N+](=O)[O-])cc2[nH]c1=O	5.87
CCOc1cccc(C(=O)N2CCCN(C)CC2)c1	3.11
CC1(C)CC(=O)c2sc(NS(=O)(=O)c3ccc(Br)cc3)nc2C1	27
Cc1ccnc(SCC(=O)Nc2cc(C)on2)n1	14.4
O=C(Nc1ccc(Nc2ccccc2)cc1)c1ccco1	-26
CCOC(=O)C1=C(C)NC(C)=C(C(=O)OCC)C1c1ccccn1	15.4
Cc1nc2cc(NS(=O)(=O)c3ccccc3)ccc2n1C	9.21
CCCCCC(=O)NC(=S)Nc1cccc(-c2nc3ncccc3o2)c1	-3.22
COc1cc2[nH]c3c(c2cc1OC)CCN1CCCC[C@@H]31	13.4
C=C(C)c1ccc(C(C)(C)NC(=O)N(Cc2ccccc2)Cc2ccco2)cc1	-1.79
COC(=O)CCC(=O)OC1(C)C(=O)C=C2C=C(C3CC3)N(CCc3ccccn3)C=C2C1=O (stereo not drawn)	14.2
COc1ccc([C@H]2CC(=O)C=C(c3cccc4c3Oc3ccccc3S4)C2)cc1OC	-13.1
COC(=O)c1c(N(S(C)(=O)=O)S(C)(=O)=O)sc2c1CCN(c1ncc(C(F)(F)F)cc1Cl)C2	13
O=C(NCc1ccccc1)c1onc(CSc2ccc(Cl)cc2)c1C(=O)NCc1ccccc1	9.17
COC(=O)CC1C(=O)NCCN1C(=O)c1cc(OC)c(OC)cc1OC (stereo not drawn)	23.2
CCC(C(=O)Nc1nc(C)c(C(=O)OC)s1)c1ccccc1 (stereo not drawn)	-16.8
O=C(NCc1ccccc1)C(c1ccco1)N(C(=O)c1ccccn1)c1ccccc1 (stereo not drawn)	1.58
C#CCOC(=O)Nc1cccn(Cc2c(Cl)cccc2Cl)c1=O	-3.48
COc1ccc(CNCC(=O)N2CCC3(CC2)OCCO3)cc1.O=C(O)C(=O)O	-11.4
